{"source": "the supplement of paper PMC8728848", "binders": {"B1": {"name": "SBD-G4S3-Fc (protein)", "chain": "MASIPSSASVQLDSYNYDGSTFSGKIYVKNIAYSKKVTVVYADGSDNWNNNGNIIAASFSGPISGSNYEYWTFSASVKGIKEFYIKYEVSGKTYYDNNNSANYQVSTGGGGSGGGGSGGGGSEFVPRDCGCKPCICTVPEVSSVFIFPPKPKDVLTITLTPKVTCVVVDISKDDPEVQFSWFVDDVEVHTAQTQPREEQFNSTFRSVSELPIMHQDWLNGKEFKCRVNSAAFPAPIEKTISKTKGRPKAPQVYTIPPPKEQMAKDKVSLTCMITDFFPEDITVEWQWNGQPAENYKNTQPIMDTDGSYFVYSKLNVQKSNWEAGNTFTCSVLHEGLHNHHTEKSLSHSPGAA"}}, "test_in_all_cases": "glycan array binding signal (z-score within array); higher = stronger binding", "settings_in_all_cases": "glycan notation: IUPAC condensed, linker removed", "key": {"[1]": {"target": "Neu5Ac(a2-6)Gal(b1-4)GlcNAc(b1-2)Man(a1-3)[Neu5Ac(a2-3)Gal(b1-4)GlcNAc(b1-2)Man(a1-6)]Man(b1-4)GlcNAc(b1-4)GlcNAc", "method_in_brief": "(§1)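 Glycan array data were curated from 3228 arrays in the Consortium for Functional Glycomics database and kept only where the protein sequence was available. Glycan names were converted to IUPAC-condensed notation, and columns mapping to the same glycan were averaged. The binding signal is a within-array Z-score, averaged across arrays of the same protein sequence at different concentrations or buffers and across linkers. Negative Z-scores can be read as non-binding.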"}, "[2]": {"target": "Neu5Ac(a2-6)Gal(b1-4)GlcNAc(b1-2)Man(a1-3)[Neu5Ac(a2-6)Gal(b1-4)GlcNAc(b1-2)Man(a1-6)]Man(b1-4)GlcNAc(b1-4)GlcNAc", "method_in_brief": "as §1"}, "[3]": {"target": "Neu5Ac(a2-6)Gal(b1-4)GlcNAc(b1-2)Man(a1-3)[Neu5Ac(a2-6)Gal(b1-4)GlcNAc(b1-2)Man(a1-6)]Man(b1-4)GlcNAc(b1-4)[Fuc(a1-6)]GlcNAc", "method_in_brief": "as §1"}, "[4]": {"target": "Neu5Ac(a2-6)Gal(b1-4)GlcNAc(b1-2)Man(a1-6)Man(b1-4)GlcNAc(b1-4)GlcNAc", "method_in_brief": "as §1"}, "[5]": {"target": "Neu5Ac(a2-6)Gal(b1-4)GlcNAc(b1-2)Man(a1-6)[Gal(b1-4)GlcNAc(b1-2)Man(a1-3)]Man(b1-4)GlcNAc(b1-4)GlcNAc", "method_in_brief": "as §1"}, "[6]": {"target": "Neu5Ac(a2-6)Gal(b1-4)GlcNAc(b1-2)Man(a1-6)[GlcNAc(b1-2)Man(a1-3)]Man(b1-4)GlcNAc(b1-4)GlcNAc", "method_in_brief": "as §1"}, "[7]": {"target": "Neu5Ac(a2-6)Gal(b1-4)GlcNAc(b1-2)Man(a1-6)[Man(a1-3)]Man(b1-4)GlcNAc(b1-4)GlcNAc", "method_in_brief": "as §1"}, "[8]": {"target": "Neu5Ac(a2-6)Gal(b1-4)GlcNAc(b1-2)[Neu5Ac(a2-6)Gal(b1-4)GlcNAc(b1-4)]Man(a1-3)[GlcNAc(b1-4)][Neu5Ac(a2-6)Gal(b1-4)GlcNAc(b1-2)[Neu5Ac(a2-6)Gal(b1-4)GlcNAc(b1-6)]Man(a1-6)]Man(b1-4)GlcNAc(b1-4)GlcNAc", "method_in_brief": "as §1"}, "[9]": {"target": "Neu5Ac(a2-6)Gal(b1-4)GlcNAc(b1-2)[Neu5Ac(a2-6)Gal(b1-4)GlcNAc(b1-4)]Man(a1-3)[GlcNAc(b1-4)][Neu5Ac(a2-6)Gal(b1-4)GlcNAc(b1-4)Man(a1-6)]Man(b1-4)GlcNAc(b1-4)GlcNAc", "method_in_brief": "as §1"}, "[10]": {"target": "Neu5Ac(a2-6)Gal(b1-4)GlcNAc(b1-2)[Neu5Ac(a2-6)Gal(b1-4)GlcNAc(b1-6)]Man(a1-6)[Neu5Ac(a2-6)Gal(b1-4)GlcNAc(b1-2)Man(a1-3)][GlcNAc(b1-4)]Man(b1-4)GlcNAc(b1-4)GlcNAc", "method_in_brief": "as §1"}, "[11]": {"target": "Neu5Ac(a2-6)Gal(b1-4)GlcNAc(b1-3)Gal(b1-3)GlcNAc", "method_in_brief": "as §1"}, "[12]": {"target": "Neu5Ac(a2-6)Gal(b1-4)GlcNAc(b1-3)Gal(b1-4)GlcNAc", "method_in_brief": "as §1"}, "[13]": {"target": "Neu5Ac(a2-6)Gal(b1-4)GlcNAc(b1-3)Gal(b1-4)GlcNAc(b1-2)Man(a1-3)[Neu5Ac(a2-6)Gal(b1-4)GlcNAc(b1-3)Gal(b1-4)GlcNAc(b1-2)Man(a1-6)]GalNAc", "method_in_brief": "as §1"}, "[14]": {"target": "Neu5Ac(a2-6)Gal(b1-4)GlcNAc(b1-3)Gal(b1-4)GlcNAc(b1-3)Gal(b1-4)GlcNAc", "method_in_brief": "as §1"}, "[15]": {"target": "Neu5Ac(a2-6)Gal(b1-4)GlcNAc(b1-3)Gal(b1-4)GlcNAc(b1-3)Gal(b1-4)GlcNAc(b1-2)Man(a1-3)[Neu5Ac(a2-6)Gal(b1-4)GlcNAc(b1-3)Gal(b1-4)GlcNAc(b1-3)Gal(b1-4)GlcNAc(b1-2)Man(a1-6)]GalNAc", "method_in_brief": "as §1"}, "[16]": {"target": "Neu5Ac(a2-6)Gal(b1-4)GlcNAc(b1-3)Gal(b1-4)GlcNAc(b1-3)GalNAc", "method_in_brief": "as §1"}, "[17]": {"target": "Neu5Ac(a2-6)Gal(b1-4)GlcNAc(b1-3)Gal(b1-4)GlcNAc(b1-3)[Neu5Ac(a2-6)Gal(b1-4)GlcNAc(b1-3)Gal(b1-4)GlcNAc(b1-6)]GalNAc", "method_in_brief": "as §1"}, "[18]": {"target": "Neu5Ac(a2-6)Gal(b1-4)GlcNAc(b1-3)Gal(b1-4)GlcNAc(b1-6)[Gal(b1-3)]GalNAc", "method_in_brief": "as §1"}, "[19]": {"target": "Neu5Ac(a2-6)Gal(b1-4)GlcNAc(b1-3)Gal(b1-4)[Fuc(a1-3)]GlcNAc(b1-3)Gal(b1-4)[Fuc(a1-3)]GlcNAc", "method_in_brief": "as §1"}, "[20]": {"target": "Neu5Ac(a2-6)Gal(b1-4)GlcNAc(b1-3)GalNAc", "method_in_brief": "as §1"}, "[21]": {"target": "Neu5Ac(a2-6)Gal(b1-4)GlcNAc(b1-3)[Neu5Ac(a2-6)Gal(b1-4)GlcNAc(b1-6)]GalNAc", "method_in_brief": "as §1"}, "[22]": {"target": "Neu5Ac(a2-6)Gal(b1-4)GlcNAc(b1-6)GalNAc", "method_in_brief": "as §1"}, "[23]": {"target": "Neu5Ac(a2-6)Gal(b1-4)GlcNAc(b1-6)[Gal(b1-3)GlcNAc(b1-3)]Gal(b1-4)Glc", "method_in_brief": "as §1"}, "[24]": {"target": "Neu5Ac(a2-6)Gal(b1-4)GlcNAc(b1-6)[Gal(b1-3)]GalNAc", "method_in_brief": "as §1"}, "[25]": {"target": "Neu5Ac(a2-6)Gal(b1-4)GlcNAc6S", "method_in_brief": "as §1"}, "Neu5Ac(a2-6)GalNAc": {"target": "Neu5Ac(a2-6)GalNAc", "method_in_brief": "as §1"}, "[26]": {"target": "Neu5Ac(a2-6)GalNAc(b1-4)GlcNAc", "method_in_brief": "as §1"}, "[27]": {"target": "Neu5Ac(a2-6)GalNAc(b1-4)GlcNAc6S", "method_in_brief": "as §1"}, "[28]": {"target": "Neu5Ac(a2-6)GlcNAc(b1-4)GlcNAc", "method_in_brief": "as §1"}, "[29]": {"target": "Neu5Ac(a2-6)GlcNAc(b1-4)GlcNAc(b1-4)GlcNAc", "method_in_brief": "as §1"}}, "note": "The list shows a part of the results."}
{"binder": "B1", "values": [{"measurement": "glycan array binding signal (z-score)", "setting": "[1]", "value": -0.142}, {"measurement": "glycan array binding signal (z-score)", "setting": "[2]", "value": 0.104}, {"measurement": "glycan array binding signal (z-score)", "setting": "[3]", "value": -0.3}, {"measurement": "glycan array binding signal (z-score)", "setting": "[4]", "value": -0.219}, {"measurement": "glycan array binding signal (z-score)", "setting": "[5]", "value": -0.395}, {"measurement": "glycan array binding signal (z-score)", "setting": "[6]", "value": 0.137}, {"measurement": "glycan array binding signal (z-score)", "setting": "[7]", "value": 0.293}, {"measurement": "glycan array binding signal (z-score)", "setting": "[8]", "value": 0.258}, {"measurement": "glycan array binding signal (z-score)", "setting": "[9]", "value": -0.012}, {"measurement": "glycan array binding signal (z-score)", "setting": "[10]", "value": -0.196}, {"measurement": "glycan array binding signal (z-score)", "setting": "[11]", "value": -0.614}, {"measurement": "glycan array binding signal (z-score)", "setting": "[12]", "value": -0.014}, {"measurement": "glycan array binding signal (z-score)", "setting": "[13]", "value": -0.051}, {"measurement": "glycan array binding signal (z-score)", "setting": "[14]", "value": 0.075}, {"measurement": "glycan array binding signal (z-score)", "setting": "[15]", "value": 1.23}, {"measurement": "glycan array binding signal (z-score)", "setting": "[16]", "value": -0.176}, {"measurement": "glycan array binding signal (z-score)", "setting": "[17]", "value": -0.226}, {"measurement": "glycan array binding signal (z-score)", "setting": "[18]", "value": 0.674}, {"measurement": "glycan array binding signal (z-score)", "setting": "[19]", "value": -0.041}, {"measurement": "glycan array binding signal (z-score)", "setting": "[20]", "value": -0.264}, {"measurement": "glycan array binding signal (z-score)", "setting": "[21]", "value": -0.37}, {"measurement": "glycan array binding signal (z-score)", "setting": "[22]", "value": 0.154}, {"measurement": "glycan array binding signal (z-score)", "setting": "[23]", "value": 0.209}, {"measurement": "glycan array binding signal (z-score)", "setting": "[24]", "value": -0.2}, {"measurement": "glycan array binding signal (z-score)", "setting": "[25]", "value": -0.205}, {"measurement": "glycan array binding signal (z-score)", "setting": "Neu5Ac(a2-6)GalNAc", "value": -0.304}, {"measurement": "glycan array binding signal (z-score)", "setting": "[26]", "value": -0.316}, {"measurement": "glycan array binding signal (z-score)", "setting": "[27]", "value": -0.27}, {"measurement": "glycan array binding signal (z-score)", "setting": "[28]", "value": 0.005}, {"measurement": "glycan array binding signal (z-score)", "setting": "[29]", "value": -0.461}]}
